# The source gives no read counts; variants with many changes may rest on few reads.
# B1: LINE1-full (parent)
# chain: UACGUAGGUGGUUUUCCCCUGAUAGUGCUAAGGGGGCCUGGAAGUUUGGACUGGGCAGAGCUCAACACAGCGUGGCAAAGUGGCUGUGGCUAGACUGCCUCUCUGGAUUCCUCGUCACUCAGCAGGGCAUCUCUGAGAGAAAUGCC
# Variants of: B1
# Test: self-cleavage, relative activity (ratio to wild type); higher = more cleavage; in vitro, sequencing; the parent is a self-cleaving ribozyme
row,Variant,self-cleavage
1,U9C A59U U73A U96C U112A,0
2,U9C A31U G70A U87C A138G,0.04
3,G7A U20A A141G,0.83
4,U9A G53U A78U,1.53
5,G7U U9C U73C,2.13
6,U9A U20A U45C,1.24
7,G8U A69G U109C,0
8,U9A G33U U39C A142G,1.15
9,U9A U14C U85C,0.53
10,G7U U9A U14C C116A,0.33
11,U9A U14C A121G,0.77
12,G7U U13A U39C A69G C90A G122A,0.07
13,U9C A94G U100A,0.61
14,U9A A67G U85C U100C,0
15,U9C U12C U29G U91A U115A,0.8
16,U9A A42G G54A A69U G82A A141G,0.04
17,U9A U46C A65U C99A A136G,0.11
18,G7A C19U U119A,1.36
19,U9A U15C U143A,0.66
20,U9C A42U U52A U73A A129G,1.52
21,G8U G72U U96A A142G,0.11
22,U9A U12C U14A,0.59
23,U9A U73C A141G,0.97
24,U9C A30G A78G G122A A140C,2.26

row,Variant,self-cleavage
1,U9A U47A A129G,0.41
2,G7A U15C U62C A92C,0
3,U9A U29A G97A,0.2
4,U9C A50G G126A,1.12
5,U9C U14A U85A,0.19
6,U9A A69G U119C A140G,0
7,G8A U12A U20C U47G U100A A142G,0.8
8,U9C A43G A64U,0.55
9,U9C A30G A78G U100C A121U A136G,2.3
10,U9C A42G A140G,0.69
11,G7A A65U G122U A140U,0.2
12,U9C G75U U119C U130C,0.92
13,U9C U13C U45G A136G,1.28
14,U9A U45G U62C A142U,0.11
15,G8U U45C U73A,1.31
16,U9A A140G A141U,1.12
17,U9C U12C U85C,0
18,G7C A92G A142G,0.21
19,U9A A57G A67G,0.65
20,U9A A79G U130C,1.4
21,G7A G74A A77G,1.23
22,U9C U12C A129G,0.32
23,G8U U29C C110U,0.8
24,G8A A42G A79G A124G,1.06

row,Variant,self-cleavage
1,U9C A69G A78G U104C,0.66
2,U9A U46C U73C A94G G127U,0
3,U9A U29C U62C A69U U102C U134G A136G,0
4,U9C U13C A69G G89A A138G,0.2
5,U9A A79G U100G A124U,0
6,U9A C16U A22G G27A U29C A92U A117G A138G,2.63
7,G8U A43G C76U U96A,0.14
8,U9C U12G A94G,0.54
9,G8C C17U U26G A78G,0.89
10,U9A A30G U132A,0.75
11,U9A C16U G35U A117G,1.12
12,G8C A24G A65G,0.36
13,U9C C19U U132A,1.39
14,U9C C66U A107G,0
15,U9A U47C U91C C110G,0.92
16,G8A U47A G72U G82A A94G,0.26
17,U9C A64G A121U,0.18
18,U9C A30U U85C,0.32
19,U9C U13C U119C,1.38
20,G7U U26C U45C U102C C118U,1.67
21,U9A U12G A67U G97A,0
22,U9C U15A A24U,0.72
23,U9A A24U G97A,0.23
24,U9A A121C A140G,0

row,Variant,self-cleavage
1,U9C A117G A142G,0
2,G7U A67U U119C,0.14
3,U9A U12C U143A,0.6
4,U9C G32A A77U G106C,0.42
5,U9C U13C C28A U91A A129G A140G,0.58
6,G7A U12G U45A A65G A117U,0.23
7,U9A U62C U119C,0.2
8,G7A A117G A129G,1.06
9,U9A U47C U100C U112C,0.57
10,G8C C71A U85A A117U,0.06
11,U9C A43U U45G,1.3
12,U9A C51U U104C A142G,1.47
13,U9C A24G U39C U109C C116U U130C,1.22
14,U9A A42U U91C A138G,0.33
15,U9A A24U G35A,1.3
16,U9C G11A U14A G126C A142G,1.23
17,U9C G137A A138G A141C,1.44
18,U9A A69G U115C,0.74
19,U9A C16U U45C,0.39
20,U9C A124U U134A,1.2
21,U9C A42U U62A U104C,0
22,U9A U12C U23C,1.23
23,U9C A22U A31G U62A U81C U134A,0.61
24,U9A G36U U115A U143A,1.39

row,Variant,self-cleavage
1,G7A U96A C146U,0.02
2,G8C U13C U20C U39C,1.8
3,G8A A78G U119C,1.38
4,G8C U14C C28A,0.6
5,U9A A22G C71U,0.8
6,U9C A22U A107G,1.84
7,G8A U9C U45C G137A,0.84
8,U9A U45C U143A,0.67
9,U9A U13C U39A A92U U104C,0.44
10,U9A U12C U45A A94U A142G,0.84
11,U9C A129G U130C,0
12,U9C G41U C113U A140G,0.39
13,U9A U26C A78G,1.06
14,G8A U46A A78G,1.25
15,U9C A31U U52C,0.38
16,U9C U13C A121G,0.94
17,G7A U47A G48A U73C U134A,0.89
18,U9C A24U A43G A107G,0
19,G8A U20C A107G,1.04
20,U9A U20C U39C U115A U119C,0.95
21,G7A A24G U108C A141G,0.35
22,G7A A65G U102C,0
23,U9A U102C U109A,1.01
24,U9C A43U A77G,2.15

row,Variant,self-cleavage
1,U9C U13C U20A U62G U108C,1.45
2,U9C U12A U73A U112C A129U,1.31
3,G7A U14A A42G A129U,0.79
4,U9A A64G U81C,0.2
5,U9A U13C A43U A50U U108C,0.99
6,U9C C133A U134C,1.21
7,U9A G88A U96C,0.06
8,U9C A59U U108C A141G,1.58
9,U9A A78G U81C U96A,0.09
10,U9A A57G U91G A140G U143C,0
11,G7A A22G U47A A77U,0.47
12,U9C U15C A22G U46C U81A U119C,2.8
13,U9C U14C U39C A59G U100C A142G,0
14,U9C U12G A78G U130C A142G,1.1
15,U9A U20C A65G,0.37
16,U9C U12G U15C G21A G33A C38U A77G U100C,1.71
17,U9A U14C U20C C123U,0.96
18,U9A G32C U109C G122U,0.97
19,G7C A57U A78G C98A A117G,0.07
20,U9A U14C U85C U104C A140U,0.54
21,U9A U46C A77U A124G,0.96
22,G7C A22G G40A A129G A141G,1.46
23,U9C U13C A67U A142G,0.47
24,G7C A67U A117G,0.45

row,Variant,self-cleavage
1,G8A U13A A42G A129G,0.4
2,U9A U26C U46C C61A A141G,0.11
3,U9C U13C A141G,0.82
4,G7A U46C A69G A78G U87A,0.1
5,U9C C133A A138G,1.03
6,U9A U81A U96A U108C A142G,0.04
7,U9C U12C U102C,0.9
8,G8A A77U U96A A136G,0.13
9,U9A U52C U102G,0
10,U9A U15A A57U U134A A141G,0.5
11,U9A A69G U143A,0.38
12,G7A U26C A138G,1.23
13,G7U U15C U102C C113U,1.47
14,G7C U26C A107G,0.67
15,U9C G53A U87A U115C,0.15
16,G7A U14C U20A U26C A57G U81C,0
17,G8A U46C U52G U62A U87C U96A,0
18,U9C G55C U130C A141G,0.27
19,U9C G35U G55A U85C,0.15
20,U9C A59U U62C A69G G82A C131U A136G,0.08
21,U9C A65G U102C,0
22,G7A U39A A69U A138G,0.02
23,U9A A67G U96G,0.34
